Laboratory results taken from article PMC4336329 (PLoS ONE, 2015).
In all, about 310,000 compounds went through this assay and about 2,200 (0.71%) showed an effect of 50% or more. The effect is printed as a negative number. The list shows a part of the results.

These compounds were tested against human ether-à-go-go-related gene (hERG) potassium channel (human, UniProt Q12809) (assay: primary screen, population patch clamp on CHO cells stably expressing hERG).
human ether-à-go-go-related gene (hERG) potassium channel, sequence (Q12809 whole entry, looked up): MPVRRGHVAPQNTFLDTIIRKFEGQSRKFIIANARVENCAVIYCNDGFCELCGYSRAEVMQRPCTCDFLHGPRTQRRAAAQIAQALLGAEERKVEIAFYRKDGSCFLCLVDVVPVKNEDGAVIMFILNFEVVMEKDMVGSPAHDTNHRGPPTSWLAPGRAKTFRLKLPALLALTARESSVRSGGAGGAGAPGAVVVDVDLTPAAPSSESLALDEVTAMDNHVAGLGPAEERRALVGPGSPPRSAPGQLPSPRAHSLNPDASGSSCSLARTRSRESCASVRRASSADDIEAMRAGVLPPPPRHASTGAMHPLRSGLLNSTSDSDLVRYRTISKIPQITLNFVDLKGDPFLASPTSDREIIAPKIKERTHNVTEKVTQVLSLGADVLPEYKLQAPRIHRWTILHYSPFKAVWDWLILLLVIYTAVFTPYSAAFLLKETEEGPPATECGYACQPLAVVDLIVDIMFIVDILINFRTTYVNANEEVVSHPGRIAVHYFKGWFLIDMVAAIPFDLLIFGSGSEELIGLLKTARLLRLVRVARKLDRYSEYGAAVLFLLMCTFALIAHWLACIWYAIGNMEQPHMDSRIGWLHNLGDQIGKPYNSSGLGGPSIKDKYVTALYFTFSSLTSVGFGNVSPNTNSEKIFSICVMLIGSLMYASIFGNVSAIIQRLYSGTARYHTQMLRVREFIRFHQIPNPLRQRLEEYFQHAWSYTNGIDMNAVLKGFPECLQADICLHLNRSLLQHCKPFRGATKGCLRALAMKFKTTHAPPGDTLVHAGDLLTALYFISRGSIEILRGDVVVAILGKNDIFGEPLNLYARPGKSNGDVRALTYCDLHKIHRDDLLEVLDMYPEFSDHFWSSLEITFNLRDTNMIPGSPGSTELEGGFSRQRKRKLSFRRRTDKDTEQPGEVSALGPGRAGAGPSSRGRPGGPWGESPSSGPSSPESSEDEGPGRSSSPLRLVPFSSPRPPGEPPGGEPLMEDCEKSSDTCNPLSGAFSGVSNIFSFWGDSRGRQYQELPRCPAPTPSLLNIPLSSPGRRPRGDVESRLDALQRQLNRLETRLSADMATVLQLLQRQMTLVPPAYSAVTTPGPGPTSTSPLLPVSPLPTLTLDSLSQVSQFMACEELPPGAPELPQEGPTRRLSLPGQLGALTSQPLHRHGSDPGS

SMILES	hERG current change (%, negative = inhibition) at 1uM [%]
CCCC1(C)SC(NC(C)=O)=NN1C(C)=O (stereo not drawn)	7.78
CCOc1ccc(NC(=O)CSc2nnc(-c3ccco3)n2C)cc1	-8.86
COCCSc1nnc(NC(=O)c2ccc(NC(C)=O)cc2)s1	17.3
Cc1ccc(CNC(=O)C2CCN(S(=O)(=O)c3cccc4nonc34)CC2)cc1	6.7
CCNc1ncnc2c1cnn2C	7.62
c1ccc(Oc2cccc(NC3=NCCC3)c2)cc1	6.47
Cc1ccc(/C(N)=N/OC(=O)c2cccs2)cc1	15.3
CC1(C)COC(Cn2c3ccccc3c3ccccc32)O1 (stereo not drawn)	12.1
COc1cccc(NC(=O)CSc2ncnc3c2cnn3Cc2ccccc2)c1	3.64
CC(C)C(=O)Nc1ccc(C(=O)N/N=C/C2CC3C=CC2C3)cc1 (stereo not drawn)	16
CN(C)C(=O)c1ccc(NS(=O)(=O)c2ccc3c(c2)OCCO3)cc1	7.41
O=C(NCC1CCCO1)C1c2ccccc2Oc2ccccc21 (stereo not drawn)	20.5
O=C(NN1C(=O)/C(=C/c2ccc(O)cc2)SC1=S)c1cccc(O)c1	13.5
Cc1cccc(C)c1NC(=O)CNC(=O)c1ccc(NS(=O)(=O)c2ccc3[nH]c(=O)[nH]c3c2)cc1	13.7
O=C(c1ccco1)N1CCN(C(=O)C2CC(=O)N(c3ccccc3)C2)CC1 (stereo not drawn)	-1.56
O=C(CNc1cc(S(=O)(=O)N2CCOCC2)ccc1NCC1CCCO1)Nc1ccc(C(F)(F)F)cc1 (stereo not drawn)	4.81
COCCCNC(=O)c1ccc(Cn2c(=O)c3ccccc3n(Cc3ccc(C)cc3)c2=O)cc1	11.4
COCCCn1cnc2c(c1=O)c1nc3ccccc3nc1n2-c1ccccc1	-2.6
COc1ccccc1C(=O)COC(=O)CNS(=O)(=O)c1ccc(C)c(C)c1	15.1
CCOC(=O)c1ccccc1NC(=O)CSc1nc2ccccc2c(=O)[nH]1	4
COc1nc(NC(C)=O)nc(C)c1Br	-5.53
O=C(CSc1nnc(-c2ccc3c(c2)OCO3)o1)Nc1ncc(C(F)(F)F)cc1Cl	-0.135
O=C1NC(=O)C2(CCCc3ccccc32)N1 (stereo not drawn)	14.5

SMILES	hERG current change (%, negative = inhibition) at 1uM [%]
NC(=O)CSC1=Nc2ccccc2C2=NC(CCC(=O)NCc3ccc(F)cc3)C(=O)N12 (stereo not drawn)	15.2
COCC1CCN(Cc2cn(Cc3ccccc3)nc2-c2cc3ccccc3o2)CC1	-22.2
O=C(NN1C(=O)C2C(c3ccccc3)C=CC(c3ccccc3)C2C1=O)c1ccncc1 (stereo not drawn)	1.31
Cc1c(N(C)C)c(=O)n(-c2ccccc2)n1C	13.2
Cc1cccc(N(CC(=O)NC(C)C)C(=O)CCC(=O)Nc2nccs2)c1	11.1
CCN(CC)S(=O)(=O)c1ccc(NC(=O)c2ccccn2)cc1	12.8
CC(=O)Nc1ccc(N2C(=O)CSC2c2cccc(Br)c2)cc1 (stereo not drawn)	7.46
CC(=O)Nc1ccc(Oc2cncc(Cl)c2)nc1	11.3
CCOc1ccccc1NC(=O)c1oc2ccccc2c1NC(=O)C1CC1	3.73
C=CCNC(=O)C1CC=CCC1C(=O)O (stereo not drawn)	8.78
CCn1c(C)c(C(C)=O)c(NCc2ccccc2)nc1=S	-0.405
S=P(N1CC1)(N1CC1)N1CC1	14.5
O=C(NCc1ccc(-n2cccc2)cc1)c1cccc(F)c1	14.9
O=C(CSc1nc2scc(-c3ccccc3)c2c(=O)[nH]1)NC1CCCCC1	15.2
O=C1OCC/C1=C\c1ccc2c(c1)OCO2	19
O=C(NNc1nc2c(F)cc(F)cc2s1)C1=COCCO1	16.1
CCC(C)NC(=O)c1cc(S(=O)(=O)N2CCCCC2)c[nH]1 (stereo not drawn)	24.2
Cc1ccc2[nH]c(=O)c(CN(CC3COCCO3)C(=O)Nc3ccccc3F)cc2c1 (stereo not drawn)	-1.51
O=C1c2ccc3c4c(ccc(c24)C(=O)N1c1ccc(O)cc1)C(=O)N(c1ccc(O)cc1)C3=O	26.1
C/C=C(\C)C(=O)NCCN1C2=NC[C@@H](Cc3ccccc3)N2C[C@@H]1Cc1ccc(OC)cc1	6.4
CC(=O)Nc1ccc(NS(=O)(=O)c2cccc3nonc23)cc1	20.8
CCOC(=O)[C@H]1[C@H]2COc3ccc(Cl)cc3[C@@H]2N2C(=O)CN(Cc3ccc(OC)cc3)C(=O)[C@@]12C	10.5
CCn1c(=O)c(=O)[nH]c2cc(C(=O)NC(C)c3ccc(S(N)(=O)=O)cc3)ccc21 (stereo not drawn)	8

SMILES	hERG current change (%, negative = inhibition) at 1uM [%]
O=C(c1cccc(C(F)(F)F)c1)N1CCc2c([nH]c3ccccc23)C1C(F)(F)F (stereo not drawn)	2.07
Cc1ccc(C(=O)NC(=S)Nc2cccnc2Cl)cc1	1.74
CC1CCCN(c2nc3ccccc3nc2C(C#N)S(=O)(=O)c2cccs2)C1 (stereo not drawn)	3.34
COC(=O)c1[nH]c(C)c(/C(O)=C2\C(=O)C(=O)N(CCN(C)C)C2c2ccco2)c1C (stereo not drawn)	6.05
COc1ccc2nc(SCC(=O)/C(C#N)=C(\C)N)[nH]c2c1	-10.7
Cc1ccc(OCC(=O)NNC(=O)C2CCC2)cc1C	7.97
CC1=NNC(=O)C1CC(=O)N/N=C/c1sccc1C (stereo not drawn)	5.52
Cc1ccc(C)c(NS(=O)(=O)c2ccccc2C)c1	4.37
O=C(NC(Cc1ccccc1)C(=O)O)C1CCN(S(=O)(=O)c2cccc(C(F)(F)F)c2)CC1 (stereo not drawn)	11.4
CCOC(=O)c1ccc(COC(=O)c2cc(=O)[nH]c3ccccc23)o1	-0.15
Cc1ccc(S(=O)(=O)Nc2c(C)n(C)n(-c3ccccc3)c2=O)cc1C(=O)NCc1ccccc1	5.34
COc1ccc(C(=O)N2CCOC23CCN(c2ncccn2)CC3)cc1	1.21
Cc1nnc(SCC(=O)Nc2nccs2)[nH]c1=O	8.22
CCCCNC(=O)CN(c1cccc(Br)c1)S(C)(=O)=O	0.981
CCN(CC)c1ccc(N=Cc2c(O)n(Cc3ccco3)c(=O)[nH]c2=O)cc1	8.18
COCCN1CCN(C(=O)C2CCC(=O)N(Cc3ccccc3F)C2)CC1 (stereo not drawn)	9.05
O=C(Nc1ccc(F)cc1F)c1ccc(-n2cccn2)c([N+](=O)[O-])c1	2.31
Cc1cccc(S(=O)(=O)N2CCCc3ccccc32)c1	22.9
CCN(CC)C(=O)COc1coc(CN2CCN(c3ccc(F)cc3)CC2)cc1=O	10.1
CCS(=O)(=O)n1nc(NCc2cccc(OC)c2)nc1NCc1cccc(OC)c1	6.13
CC(C)CC(=O)C1CCCN(C(=O)c2ccc3oc(Cc4ccccc4)nc3c2)C1 (stereo not drawn)	11.9
Cc1cc(C)c2c(NC(N)=S)n[nH]c2n1	1.24
Cc1ccc(C)c(OCCC(=O)OCC(=O)Nc2ccc(Cl)cn2)c1	5.38

SMILES	hERG current change (%, negative = inhibition) at 1uM [%]
O=C1CCC/C1=C\c1ccccc1	7.12
C=CCn1c(SCN2C(=O)c3ccccc3C2=O)nc2ccc(Cl)cc2c1=O	21.7
COc1cc(S(=O)(=O)Nc2ccc(Br)cc2)ccc1N	-3.42
CCC(c1nnnn1CCOC)N1CCN(C(=O)c2ccco2)CC1.Cl (stereo not drawn)	9.86
Cc1ccc(C(=O)NNC(=O)Cn2ccc(C(F)(F)F)n2)o1	8.93
C(#CC1CCCC1)c1ccc2c(c1)COc1c3ccccc3nn1-2	7.15
CCCCn1c(N)c(N(CC)C(=O)c2ccc(Cl)c(Cl)c2)c(=O)[nH]c1=O	12.1
CN1CCN(C(=O)C2=C[C@H](C3CCCCC3)C[C@H](OCc3ccc(CO)cc3)O2)CC1	-29.3
O=C(CCC(=O)OCc1ccc([N+](=O)[O-])cc1)Nc1ccccc1Cl	12.9
O=C(NNc1cccc(Cl)n1)C(F)(F)F	15
Cc1ccc(-c2ccc(CCC(=O)O)n2NC(=O)c2ccc([N+](=O)[O-])cc2)cc1	19.3
Cc1ccc(C(=O)Nc2nnc(C)s2)cc1	14.6
CN(CCCN1CCOCC1)Cc1nc(-c2ccccc2)no1	10
Cc1ccc(C)c(S(=O)(=O)N2CCCOC2CNC(=O)C(=O)NCCN2CCOCC2)c1 (stereo not drawn)	15.4
CC1CC(=O)Nc2ccccc2N1S(=O)(=O)c1cccc(F)c1 (stereo not drawn)	14.4
CCCC(C)C(=O)Nc1nnc(C)s1 (stereo not drawn)	2.72
Cc1cc(N/C=C(\C#N)S(=O)(=O)c2ccc(Cl)cc2)nc(C)n1	9.13
CCCCN(CCCNC(=O)c1c(C)cc(=O)oc1C)c1ccccc1	-25.2
CCOC(=O)c1c(C)[nH]c(C(=O)OCc2ccc([N+](=O)[O-])cc2)c1C	16.1
COc1ccc(/C=C/c2onc(C)c2S(=O)(=O)N2CCC(C(=O)N3CCCCCC3)CC2)cc1	-2.66
CCN(CC)S(=O)(=O)c1ccc(N2CCOCC2)c(NS(=O)(=O)c2cccs2)c1	-1.83
